± gives the standard deviation of the averaged measurements. The list shows a part of the results.
Test system: PfAP2-LT AP2 domain (GST-tagged)
Test: gcPBM binding intensity (ln(normalized median fluorescence intensity)); higher = stronger DNA binding
In short: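 For binding intensity, the highest Masliner-normalised natural-log median intensity across replicate spots of either probe orientation was taken. Protein bound to the array was stained with Alexa488 anti-GST antibody and scanned at 488 nm. The protein, GST-tagged P. falciparum DNA-binding domains from E. coli at about 25 μg on average, had been applied for 1 h to an Agilent 4 × 180k array of primer-extended double-stranded 36-bp intergenic genomic probes and negative controls.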

Sequence | gcPBM binding intensity (ln)
GGTGTTAAAAAATACACACACAAAAAAAAAAAAAAA [CACACA_site138] | 9.03 ± 0.54
TAACTTGAATGGATATGTACATATATATATATATAT [XGTACX_site5990] | 9.91 ± 0.22
ATTCATCTATTTTGTAGTACTAAATATATATCTACT [XGTACX_site8790] | 8.87 ± 0.4
TAGATGTATGTACATACACACATATATAAATAAATA [CACACA_site1788] | 9.21 ± 0.47
AATAAACATATATACACACACAAAAAAAAAAACATA [CACACA_site424] | 9.59 ± 0.5
TTCTTCTGTTTTATTACACACCATTTTGTGGATACA [CACACA_site5181] | 9.12 ± 0.35
TACCTAGGATTAAAGTGTCCACATAATTTAAATAAT [XGTACX_site6736] | 8.71 ± 0.5
TATATAAATAGACACACACACATATAAATATAAATA [CACACA_site6503] | 9.69 ± 0.32
TTTTTTATTATATAATTGTATATAAAATTATAATTT [GTGCAC_negctrl_site733] | 8.32 ± 0.3
GAATGTATATTCATGTATTTATTATTATTATTATTA [XGTACX_negctrl_site156] | 8.54 ± 0.52
TAAAAATTAATATAAACACACAAAAATTAATAAATA [CACACA_site381] | 8.74 ± 0.51
TATAACAAGTTATAAAGTACAAATGTTGAATTTTAT [XGTACX_site4673] | 8.62 ± 0.42
TCGGGAGGGGGGAAGCGTACATATATAAAATTATTA [XGTACX_site4683] | 9.69 ± 0.37
TATAGATACAGATACACACACACACCGACATATATA [CACACA_site5832] | 10 ± 0.22
ATATGCCTAATAAAATGTACGTTTGTTTTATTTATT [XGTACX_site3833] | 8.95 ± 0.38
ATATATATATTTTGGTAGCACCTCCTTTTTTTTTTT | 8.89 ± 0.58
TATGTATTTATATTAACACACAAAAAAAAAAAAAAA [CACACA_site5070] | 8.62 ± 0.39
ATATGGCTAAAAGTTGCACACACACTAATAAAAAAA [CACACA_site9082] | 9.29 ± 0.37
ATTATTTTACTAAAAGATATTCCTTTTTTTTGTACT [CACACA_negctrl_site998] | 8.68 ± 0.45
TAAAAAATAAAAAAAGCACACACATATATATATATA [CACACA_site8567] | 9.77 ± 0.18
AAAATAAGAAATTGAAAAATTGAAAACAAAATTAAA [CACACA_negctrl_site1285] | 8.47 ± 0.58
TATAAATAAAAACACACACACATATATATATATATA [CACACA_site2319] | 9.88 ± 0.12
CCATTTTAAATATGCACACAGATGCACTAACCCATT [CACACA_site1883] | 9.18 ± 0.33

Sequence | gcPBM binding intensity (ln)
TTACAAATGTTTTACACACACATAATTGTATCAATT [CACACA_site6147] | 9.22 ± 0.38
ACTACTCCATTAAGTAGTACACAAAAAAAAAAAATA [XGTACX_site7031] | 8.51 ± 0.65
TAATAAAACATATATACACACATTATAAATACATAT [CACACA_site5014] | 9.17 ± 0.28
TTGGGGTATCTTCCTATGCACACTTGTTATGTACTA [CACACA_site831] | 9.23 ± 0.37
ATTATAGACACGCGCACACACAACAAAAAAAAAAAA [CACACA_site9180] | 9.73 ± 0.61
TTGCTCACAAGAAGCACACAAAAAAAGAAAAAAAAA [CACACA_site4047] | 8.72 ± 0.59
ATACTTTTAAATTGATGTACTTTATTTATAAGGTGA [XGTACX_site6746] | 8.48 ± 0.4
TTGATTACTAGAAATGCACACACTGATAAAATAAGG [CACACA_site4134] | 9.2 ± 0.32
TTTATACTTGTAAATGCACACATAAGATGCGACTAA [CACACA_site8662] | 8.94 ± 0.3
ATATCCTTAAAAGATACACACATATGAATATTTTGT [CACACA_site3847] | 9.05 ± 0.35
GTTTGTAAATATTTTACACACATATATATATATATA [CACACA_site1075] | 9.71 ± 0.14
GTTTTTTTATTTCATCGTACAAAAAAGAAGGCTTTA [XGTACX_site5291] | 8.34 ± 0.3
TAAATATGTATTCATACATGCACATATATATATATA [TGCATGCA_site584] | 9.36 ± 0.32
TTATATATTTATTTATGTACATATTTTTTTATTATA [XGTACX_site6115] | 8.91 ± 0.45
TTCACAAAATATTATTGTACATTAAAATATTTATAT [XGTACX_site2535] | 8.47 ± 0.42
TATAAAACGGATGAACAACAAATCATATGGCACAAA [TGCATGCA_negctrl_site608] | 9.14 ± 0.34
TACATGATATATCACACACACATATAAATATATATA [CACACA_site2831] | 9.55 ± 0.4
GAAAATTTCTTATTTTGTACACACAATAAATATTCA [XGTACX_site3267] | 8.77 ± 0.45
CAACATTCGTATATCACACATTTGCATGTTGTCAAT [CACACA_site4470] | 9.15 ± 0.4
GATTTAGTTATTTAAACATGCAATTTATATAGAATT [TGCATGCA_site47] | 8.34 ± 0.43
TATTTATACATACATACACACATATAGATTTATATT [CACACA_site7851] | 8.99 ± 0.41
TTATTTTTTATTATGTGTACATAACATCGCGATACA [XGTACX_site4359] | 8.97 ± 0.38
AAAACTTGTCAGAATGGACACACGAATTAAAGGCCT [CACACA_site1215] | 8.94 ± 0.36

Sequence | gcPBM binding intensity (ln)
ATATGATATATATTCGGTACACATATATATAAAGAG [XGTACX_site430] | 9.04 ± 0.5
TTTTTAATTTATTGTGTGCACACAACTATGAGTTTT | 9.63 ± 0.34
AAGTTTTCTTAAAATTGTACTTTTCAAAAATAATCT [XGTACX_site277] | 8.18 ± 0.38
ATTTAAATAATATTCACACACAAAATTATATTTTAA [CACACA_site219] | 8.77 ± 0.39
TATGTCAAATATATATGTACACAAATATACTATTAA [XGTACX_site2643] | 8.63 ± 0.51
ATAAAATATATATTAGTGCACTAAAGGAAAAAAAAT | 9.18 ± 0.51
AATATATATATTAGAGTGCACATAATTATTTGCTAA | 8.77 ± 0.37
AAAAATTTCATATTCACACACAAAAAAAAAAAATAT [CACACA_site1592] | 9.12 ± 0.5
TGATATATATATATATATATAACACACGCAAAAAAA [TGCATGCA_negctrl_site240] | 9.39 ± 0.26
ATAATCACAAATAATTGTACATTTTGTTATATATAT [XGTACX_site7704] | 8.82 ± 0.43
AATAAAAATTGGTAGGCACACATGGAACTATTAAAA [CACACA_site1257] | 9.05 ± 0.43
TATAAAAGGTAAGAGTGTACAAGTAAAAAATTTTTA [XGTACX_site771] | 8.89 ± 0.63
ATGAACTATATTAAATCACACATTATCATTTTATAT [CACACA_site4989] | 8.82 ± 0.43
ATTTTTTTTATGAGGTGTACTCATATAATAACTACA [XGTACX_site5074] | 8.62 ± 0.28
TATTTTTTTTTTTAATGTACAAACAAATTATGTTGG [XGTACX_site2873] | 8.46 ± 0.42
TTTTCTAAAGTAAGTTAAGATATGCAAAAAAAAGAA [GTGCAC_negctrl_site242] | 8.54 ± 0.44
ATATATATATATATATGTACACATTAATGTTTTTTT [XGTACX_site167] | 9.6 ± 0.13
TATCCCTTAGAATACACACCCATATGAGCGTGAACT [CACACA_site2951] | 8.81 ± 0.34
TCGTATATGGATTTTGCACACAATTATAATTTAAAT [CACACA_site868] | 9.09 ± 0.4
TATATATTTTAAAATAGTACATATTATATAACCCAT [XGTACX_site2194] | 8.71 ± 0.33
GTAATTTTTTTCTATACACACATATCTATAATATAT [CACACA_site7284] | 9.09 ± 0.32
TACTTATAATTTCAATGTACATATATATAATATCAT [XGTACX_site2424] | 8.68 ± 0.44
AATTAAATATTATAAACACACATATAGATTATTTTT [CACACA_site6538] | 8.65 ± 0.43

Sequence | gcPBM binding intensity (ln)
ATTTCTTATTAAATTACACACAAAGTAAATAAATCT [CACACA_site3924] | 8.65 ± 0.37
ATTTTAAATATGGAATGTACTTAAAAAAAATTTCAT [XGTACX_site5058] | 8.26 ± 0.33
TTGTTTTGGATTATCACACATATAATATATACTCAT [CACACA_site4780] | 8.9 ± 0.33
TTTTCCTTTTTTTTTACATGCAGATATAGAAAGGTA [TGCATGCA_site106] | 8.37 ± 0.4
TATAATAATATGGATTGTACATATATATTTAATTAA [XGTACX_site4327] | 8.46 ± 0.48
AAATACATAACTTAAAATTTGTTCATATCTATACAT [TGCATGCA_negctrl_site249] | 8.73 ± 0.47
TCTTTTTTGAACTAGCGTACATGAAAATATTTATAG [XGTACX_site7359] | 8.54 ± 0.48
TTATTACATATAAAGGAAAATAGCATCTAGATTAAA [XGTACX_negctrl_site435] | 8.49 ± 0.45
AAAAAAAAAAAAAAAAAATACATATACATTTGTGCA [CACACA_negctrl_site1431] | 8.84 ± 0.27
TTTTTATTTATATATAAGGAAAATGCGGTATATATT [CACACA_negctrl_site1770] | 8.53 ± 0.45
TAAATCCGTTTGATGGGTACATACATACATACATAT [XGTACX_site8889] | 8.91 ± 0.37
TTTTTATAAGCATAAAGTACAAATATTTTTTAGTTG [XGTACX_site4140] | 8.24 ± 0.49
ATTTATTTTAGTAAAGCACACGTGTAAAATATATCT [CACACA_site4820] | 8.95 ± 0.42
ACAATAAAATATGGCACACATATATATATATATTTA [CACACA_site3] | 9.22 ± 0.23
ACACAAAACAAAAAGGTGCTGTATAAATGGGTGTAT [GTGCAC_site9905] | 9.44 ± 0.49
CATATATAAAAAAACACACACATATTTATATTTATA [CACACA_site6682] | 9.22 ± 0.38
CATATTTCTTACATTTGTACTTAATAAAATTAATCA [XGTACX_site7224] | 8.59 ± 0.43
AAAAAAATTTATAAATATTTTATTAATATATTTACC [GTGCAC_negctrl_site690] | 8.34 ± 0.49
ACAAAATAAATATGAACACACACATTTATGCCTTTA [CACACA_site8346] | 9.2 ± 0.29
ATAATTATACATATTACACACTCTCTTGATCTTTTT [CACACA_site3853] | 9.05 ± 0.51

Reference: the supplement of paper PMC11417369
